Measured values reported in PubChem BioAssay AID1030 (National Center for Advancing Translational Sciences (NCATS), 2008).
Among all 220,000 compounds or so, about 16,000 (7.3%) were called active. Inconclusive results, whose numbers are uncertain, are shown with a selection of clear calls. The call rests on the fitted dose curve; in most records, active means well fitted inhibition curve with a large enough effect (not every such curve was filed as active); inconclusive means small, poorly fitted or top-dose-only effect, or another doubt; inactive means no such curve, though single readings can be large or run the other way. Potencies beside an inconclusive call are fits to weak or partial responses and may not hold up.

target: Aldehyde dehydrogenase 1A1 (Homo sapiens) (UniProt P00352); experiment: qHTS Assay for Inhibitors of Aldehyde Dehydrogenase 1 (ALDH1A1); settings: Purified ALDH1A1, NADH fluorescence, propionaldehyde substrate; series mostly up to 75.3 µM;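 on activity, negative = inhibition: plate controls were no enzyme wells and a reference inhibitor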
Potency means the concentration at half of the fitted maximal effect; tags describe the fitted curve by direction and shape.

Sequence of UniProt P00352 (P00352 whole entry, looked up): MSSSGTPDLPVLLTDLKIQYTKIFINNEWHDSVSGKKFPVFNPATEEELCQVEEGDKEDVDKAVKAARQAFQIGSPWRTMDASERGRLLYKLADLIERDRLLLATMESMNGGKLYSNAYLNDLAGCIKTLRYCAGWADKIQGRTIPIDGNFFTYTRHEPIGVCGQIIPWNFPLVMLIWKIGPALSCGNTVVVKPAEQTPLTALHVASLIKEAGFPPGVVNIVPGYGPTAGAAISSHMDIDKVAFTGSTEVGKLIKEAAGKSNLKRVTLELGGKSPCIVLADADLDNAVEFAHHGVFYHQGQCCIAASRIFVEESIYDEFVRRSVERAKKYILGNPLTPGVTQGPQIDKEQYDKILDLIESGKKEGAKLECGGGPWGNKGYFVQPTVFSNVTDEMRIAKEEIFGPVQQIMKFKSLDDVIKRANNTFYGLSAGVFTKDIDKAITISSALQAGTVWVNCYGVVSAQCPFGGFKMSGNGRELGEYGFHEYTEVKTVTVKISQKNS

activity, negative = inhibition, inactive:
N#CC(CC(=O)O)=C(c1ccccc1)c1ccccc1 4.02% [at 13.5 µM]

Potency, active:
O=C(CSc1nc2ccccc2s1)NNC(=S)Nc1ccccc1 8.91 µM, Cc1ccc(SCC(=O)NC(=O)NCc2ccco2)c(C)c1 22.4 µM

Potency, inactive:
COCCOC(=O)c1[nH]c2c(c1C)C(=O)CC(c1ccccc1)C2 (stereo not given), CN(C)S(=O)(=O)Oc1ccsc1C(=O)Nc1ccc(Cl)c(Cl)c1, Cc1cc(NC(=O)CSc2nnc(-c3ccoc3C)n2N)no1, COc1cccc(C2=NOC(C(=O)N3CCc4ccccc4C3)C2)c1 (stereo not given), CC(C)(C)NC(=O)CSc1nc2[nH]ncc2c(=O)[nH]1, O=c1cc(C(F)(F)F)nc(-c2cccnc2)[nH]1, O=C(Cc1ccccc1)NNC1=NS(=O)(=O)c2ccccc21, CC(=O)N1CCN(S(=O)(=O)c2ccc(C)c([N+](=O)[O-])c2)C1C(C)C (stereo not given), O=C(CCn1c(=S)oc2ccccc21)N1CCCCC1, COc1ccccc1NC(=O)c1ccc([N+](=O)[O-])cc1[N+](=O)[O-]

Potency, inconclusive:
CCOc1ccc(CN(C)CC(=O)Nc2cccc(S(=O)(=O)N(C)c3ccccc3)c2)cc1 39.8 µM [inhibitor, single point], O=C(Nc1ccc2c(c1)OCCO2)c1ccc(Cl)c(S(=O)(=O)N2CCCCC2)c1 22.4 µM [inhibitor, partial curve], O=C(CNS(=O)(=O)c1ccc2ccccc2c1)OCC(=O)c1ccc(Br)s1 1.26 µM [inhibitor, partial curve], COCCNc1ccnc2c(Cl)cccc12 39.8 µM [inhibitor, single point], COC(=O)c1nnc(-c2ccccc2)c(-c2ccccc2)n1 31.6 µM [inhibitor, single point], Cc1ccccc1NC(=O)c1ccc2snnc2c1 44.7 µM [inhibitor, single point], c1ccc2c(N3CCNCC3)nc(-c3ccc4c(c3)OCO4)nc2c1 39.8 µM [inhibitor, single point], N#C/C(=C/Nc1ccccc1)c1ccsc1 20 µM [inhibitor, partial curve], CNC(=O)c1ccc(-c2sc3nc(N4CCOCC4)c4c(c3c2N)CC(C)(C)OC4)o1 25.1 µM [inhibitor, partial curve], CCCCCCc1nc2ccccc2c(=O)n1NC(=O)c1c(O)c2c(n(CC(C)C)c1=O)CCCC2 28.2 µM [inhibitor, partial curve], Cc1cc(Br)ccc1NC(=O)CN1C(=S)NC(C)(C)CC1C (stereo not given) 39.8 µM [inhibitor, single point], C1CCN(c2nc3nonc3nc2NCC2CCOCC2)CC1 39.8 µM [inhibitor, single point], CC(=O)C(Sc1ccc2nnc(-c3ccc(F)cc3)n2n1)C(C)=O 28.2 µM [inhibitor, single point], O=C(COc1ccc(S(=O)(=O)Nc2ccccc2)cc1)NCc1ccncc1 39.8 µM [inhibitor, single point], Cc1ccc(OCC(=O)Nc2ccc(S(=O)(=O)N3CCN(C)CC3)cc2)cc1 39.8 µM [inhibitor, single point], O=C(CSc1nnc(COc2ccccc2)n1-c1ccccc1)c1cccs1 37.7 µM [inhibitor, single point], C=C(Cl)COc1cc(C)cc2oc(=O)cc(CC)c12 11.2 µM [inhibitor, partial curve], CN(Cc1ccccn1)C(=O)CC1C(=O)NCCN1Cc1cccc(Oc2ccccc2)c1 (stereo not given) 35.5 µM [inhibitor, single point], O=[N+]([O-])c1cccc(-c2nnn(C34CC5CC(CC(C5)C3)C4)n2)c1 5.01 µM [inhibitor, full curve, poor fit], N#CCCCSC1=C(C#N)C(c2ccccc2Cl)CC(=O)N1 (stereo not given) 28.2 µM [inhibitor, partial curve], O=C(Cc1ccccc1)N1CCCC(c2nc(-c3ccc(S(=O)(=O)N4CCCC4)cc3)no2)C1 (stereo not given) 35.5 µM [inhibitor, single point], COc1ccc(C(=O)COC(=O)c2ccc(NC(=O)c3ccccc3)cc2)cc1 31.6 µM [inhibitor, single point], COc1cccc(C(=O)NC(=S)Nc2ccc(Cl)c(C(=O)O)c2)c1 28.2 µM [inhibitor, single point], CCCn1nc(C(=O)OCC(=O)c2ccccc2)c2ccccc2c1=O 39.8 µM [inhibitor, single point], COc1c(C)oc2cc(O)ccc2c1=O 31.6 µM [inhibitor, partial curve], O=C1CSC2(C(=O)N3CCCc4cccc2c43)N1c1cccc(C(F)(F)F)c1 (stereo not given) 25.1 µM [inhibitor, single point], COc1ccc(OCC#CCNC(C)(C)C)cc1 17.8 µM [inhibitor, partial curve], O=C(Nc1c2c(nn1-c1ccc(F)cc1)CS(=O)C2)c1ccc(S(=O)(=O)N2CCOCC2)cc1 (stereo not given) 15.8 µM [inhibitor, partial curve], CCCC(=O)N(Cc1cc2cccc(C)c2[nH]c1=O)c1ccccc1OC 25.1 µM [inhibitor, partial curve], O=c1[nH]c(CN2CCc3ccccc3C2)nc2ccccc12 37.7 µM [inhibitor, single point], COc1ncnc2c1oc1nc(C)c3c(c12)CC(C)(C)OC3 25.1 µM [inhibitor, partial curve], CN(C)S(=O)(=O)c1cc(NC(=O)CSc2nn(-c3ccc(Cl)cc3)c(=S)s2)ccc1Cl 14.1 µM [inhibitor, single point]
